Data published in paper PMC12136788.
Some of the results follow.

T1: UNK ZnF1-6 (called full-length) (human, UniProt Q9C0B0 30-357)
T1 sequence: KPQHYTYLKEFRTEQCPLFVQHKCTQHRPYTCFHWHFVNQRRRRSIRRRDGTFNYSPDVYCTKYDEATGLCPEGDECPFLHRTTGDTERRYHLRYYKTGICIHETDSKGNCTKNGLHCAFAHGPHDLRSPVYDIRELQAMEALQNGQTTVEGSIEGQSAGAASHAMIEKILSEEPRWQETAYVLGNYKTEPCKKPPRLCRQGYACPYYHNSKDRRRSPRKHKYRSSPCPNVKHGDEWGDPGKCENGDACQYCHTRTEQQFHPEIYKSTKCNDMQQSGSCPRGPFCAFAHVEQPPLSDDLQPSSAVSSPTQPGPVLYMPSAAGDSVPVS

B1: chr9:134030564:134030586:-|3pUTR|ENSG00000169925|msi1_unk|total|mutant (ssRNA)
RNA: GGGAGUUCUACAGUCCGACGAUCCCUCUGACAGUCUUUUGGGAAAGAGUAACACCCACAUACAGAAUUUGUCACAUCCAGAGCCGCACUGUUCCUUAAUACUGGCAUAAUGCUUCCAGGAAGUUUUUCUUUUUUAUAUUUAAACAACAGAGGAUUGAGCAUCA
B2: chr4:56461171:56461272:+|3pUTR|ENSG00000128050|msi1|FALSE|bound_elsewhere (ssRNA)
RNA: GGGAGUUCUACAGUCCGACGAUCCUUCUGUAACCACAGUGACUACAAGUAGUUCUUUCUCUAUUGAAUUAUUAGGUCCAGAAUAGAAGAUGUCAUUGUACACUUUAUUUCCCUCACACUGUGUUAUGCUCUGAUGUGCUAUGCCAACAGAGGAUUGAGCAUCA
B3: ENSG00000132661:stop:overlap|stop_codon|ENSG00000132661|stop_codon|NA|stop_codon (ssRNA)
RNA: GGGAGUUCUACAGUCCGACGAUCCCAGCAACACAGUGUGGAAGAUCGCAAGUGACUGCUUCCGCUUCCAGGACUGGGCCAGCUAGUGGGGGUGGCAGAGGUCUCUUUGCUUCAUUCAGCCCUAGCUCUGUAGAGAAAUGCAAACAACAGAGGAUUGAGCAUCA
B4: ENSG00000070961:be:win_51|CDS|ENSG00000070961|bound_else_gene|NA|bound_elsewhere_windowed (ssRNA)
RNA: GGGAGUUCUACAGUCCGACGAUCUUUGAAGGAAGCUAAUCAUGAUGGAGACUUUGGAAUUACGCUCGCAGAGCUGCGGGCUCUCAUGGAGCUCAGGUCCACAGAUGCAUUACGAAAAAUACAGGAAAGCUAUGGAGAUGUCUACAACAGAGGAUUGAGCAUCA
B5: chr10:117282838:117282939:-|3pUTR|ENSG00000165650|unk|FALSE|bound_elsewhere (ssRNA)
RNA: GGGAGUUCUACAGUCCGACGAUCCCCCUUGUGUUAUUUUUCUUCCUCUUGGUUUUUGAAUUAGUGUUAAAUAGAAUACUGUCUAGAUUCUUAAAAUAUUUUCAUUUCCAUCAUGGUUAUAACAAAUUUGCUGCAUGCCCAAACCAACAGAGGAUUGAGCAUCA
B6: chr5:139396562:139396955:-|CDS|ENSG00000170469|control|control|control (ssRNA)
RNA: GGGAGUUCUACAGUCCGACGAUCAGGGGUCCACAAGGUGGGGGCUUGUAGCCUAGGGGAGGAGCUGGGUCUUUGUUGUCUGGUAGGCACCACCGCUUCCUUUGGGUAUUUAAUCCCUUCCUAUAUAAACAGCCCUGGUUACCCCAACAGAGGAUUGAGCAUCA
B7: chr4:119293926:119294030:+|3pUTR|ENSG00000145390|unk|FALSE|unique (ssRNA)
RNA: GGGAGUUCUACAGUCCGACGAUCGAUGGAAUUUAAUUUUGCUCCUAGAAUUUUUGUCUUCAGAAUAUCUAGUUAAGAUAAAUUAGGCCUUUGACUAUUAUAGGUAUUCAUAAAUGCUACUUUAGCCAUGUAAGUUAAAAAGUUCAACAGAGGAUUGAGCAUCA
B8: chr8:41543231:41543332:+|3pUTR|ENSG00000147536|msi1|total|mutant (ssRNA)
RNA: GGGAGUUCUACAGUCCGACGAUCAAACCAUUAUUAAAUUUCCAUUCUGCAGCAGAAGGCACCUCUGGACGGCUCCCGGCUUGCCGUUUAAUGAAGUAUGUGCUCCCUGCUGUUAACCCGCAGCCCUCCCCAACUCUCCAGCAGCAACAGAGGAUUGAGCAUCA
B9: chr5:32419879:32419980:-|CDS|ENSG00000056097|msi1|total|mutant (ssRNA)
RNA: GGGAGUUCUACAGUCCGACGAUCAGUUACUGCUGCCUAUGCACCAGCAGCCGCCACAGUUGCAGUUGCCAGGCCUGCUCCAGCCGCUGUUGCAGCUGCUGCAACAGCUGCUGCUUAUGGAGGCUACCCCACUGCACACACAGCCAACAGAGGAUUGAGCAUCA
B10: chr1:37534448:37537747:-|three_prime_utr|ENSG00000163877|control|control|control (ssRNA)
RNA: GGGAGUUCUACAGUCCGACGAUCCACAUGCCUGCAGGCAUUUGUUUUCAGAACAGUCUCACCAAUUACAACACACCGUGUUUUAGUAGAAGUGUUGUGGUUUUAGUUGGUGCUUUCAGAACUGCUGCCUAGGAAACUAUAAACCAACAGAGGAUUGAGCAUCA
B11: chr1:203709306:203709407:+|CDS|ENSG00000058668|msi1|total|mutant (ssRNA)
RNA: GGGAGUUCUACAGUCCGACGAUCUCCAGAGAAGGAGGGAGGCCUGCCUCGGCAGGUGGGCAACAAGACCGAGUGUGCUCUGCCCGGCUUUGUCACAGAUCUGAAGCAGGAUUAUCAGGCUGUGCGUAAUGAAGUGCCCGAGGACAACAGAGGAUUGAGCAUCA
B12: ENSG00000099904:stop:overlap|stop_codon|ENSG00000099904|stop_codon|NA|stop_codon (ssRNA)
RNA: GGGAGUUCUACAGUCCGACGAUCGGGCCAUGUGCCGCCUGCACUUGGCUGCCUCCAGUCUUUUCCCCAGCCUCUCGGGGCCCUAGCAGGAUGACAAGUAGGCGGCUCUGGGGCCCAGGACAGCCCAGCUGGGGACCCAGGAGGCAACAGAGGAUUGAGCAUCA
B13: chr12:39370042:39370220:-|CDS|ENSG00000139116|unk|FALSE|unique (ssRNA)
RNA: GGGAGUUCUACAGUCCGACGAUCUACUUUUGACUAUGUAUUUGACAUUGACUCCCAGCAAGAGCAGAUCUACAUUCAAUGUAUAGAAAAACUAAUUGAAGGUUGCUUUGAAGGAUACAAUGCUACAGUUUUUGCUUAUGGACACAACAGAGGAUUGAGCAUCA
B14: chr11:95167508:95167609:-|3pUTR|ENSG00000149212|unk|total|mutant (ssRNA)
RNA: GGGAGUUCUACAGUCCGACGAUCAAUAAUGGAGACUGAAUGAGGCGGUUUGUAUUAAAUUAUAUGCCAUGAAGUGUUCAUUUCCGCUUUAACCUAAUUAUGACUGUACCACCAUGAAGUACAGAAUGAAAAAUUAUAUAUAUGCAACAGAGGAUUGAGCAUCA
B15: chr17:72125515:72125616:+|3pUTR|ENSG00000125398|msi1|total|mutant (ssRNA)
RNA: GGGAGUUCUACAGUCCGACGAUCUAAUUAAAACAAAAAAAAAUUCUUUUUUUUUUUUUUUUCCAAUUUUACCUUCUUUAAAACCGGUUGUUGGAGCUUUCCUCAAAGGGUAUGGUCAUCUGUUGUUAAAUUAUGUUCUUAACUCAACAGAGGAUUGAGCAUCA
B16: chr4:78448087:78448188:+|CDS|ENSG00000138759|msi1|FALSE|unique (ssRNA)
RNA: GGGAGUUCUACAGUCCGACGAUCGCCUCUGGAGAAUGGGAGAGUUUUAGUCCAGGGCUCAACCUUCACCUACCAGGAUAUCCUAGCUGGGCUGGUUGGGUAUGUGCCUAGUGUCCCUGGCAUGGUCGUGGAUGAGUUCCAGUUCAACAGAGGAUUGAGCAUCA
B17: chr11:27366961:27367062:-|3pUTR|ENSG00000205213|msi1|total|mutant (ssRNA)
RNA: GGGAGUUCUACAGUCCGACGAUCUGAAUACUUCCUAAUAUCGUUGGCUCUACUAAUAUUUUCCAAUUUGCUGGGAUGUCACCCCGCAACCGCUUGGAUUAUACCGAAAGUAAACUGUGGUCAAUACUUGCAUUUAAUCCGACGCAACAGAGGAUUGAGCAUCA
B18: chr1:232398519:232398625:-|3pUTR|ENSG00000116991|unk|FALSE|unique (ssRNA)
RNA: GGGAGUUCUACAGUCCGACGAUCACAGUAGUUUUAUUUCCACAGCCACAUUACCAUAGCAAUAAGAAAGGAGGCAUAGUACAUAGUUGGAAAAGCUUUGUGGGGGGAUUAAAAAAAAAAAAAAGCACUGUUGUGUUUAACACUCAACAGAGGAUUGAGCAUCA
B19: chr7:157269180:157269282:+|3pUTR|ENSG00000009335|unk|FALSE|unique (ssRNA)
RNA: GGGAGUUCUACAGUCCGACGAUCAUUUUAGGUUGUUUUAUGUUGAAUGUUCUAUAUCUUAUUAGUUAAUUUGUAUAUUUUAUUAGUAUUUUGGAAAUAGCAUAUCUGAGACUGAAGAGAAAUUGACAAUUCACUUAUUUGUGGCAACAGAGGAUUGAGCAUCA
B20: chr15:34978960:34979061:-|3pUTR|ENSG00000198146|msi1|FALSE|unique (ssRNA)
RNA: GGGAGUUCUACAGUCCGACGAUCGCCCUCUGUAUCCAUGUACUCUGCAUCUGUGGAUUAAACCAAUUGCAGAUCAAAAAUAUUAGAAAAAAUAAAAAUAAUACAAAUAAAAAUACAGUAUAACAGUUAUUUAAAUAGCAUUUACAACAGAGGAUUGAGCAUCA
B21: chr2:96875881:96876275:-|three_prime_utr|ENSG00000168754|control|control|control (ssRNA)
RNA: GGGAGUUCUACAGUCCGACGAUCUCGCCCACCCCUCAGCCCUCCUCCCAGCCAUCUCCUCUUCCCUAAGGCCUCUGUCUCCAUAGCUCUGGUUUCCCUGGGCCUCAGUCCUCCCCACCCUCCUUCCUCUGUCUCCCUGUCACUCAACAGAGGAUUGAGCAUCA
B22: chr11:74333230:74333331:-|3pUTR|ENSG00000165434|msi1|total|mutant (ssRNA)
RNA: GGGAGUUCUACAGUCCGACGAUCUGAGUCUUUUAUUGAAGGGUUCAAAGUAAGAAAUACUAUGCCACCGUGUUCUCCAUCUCCCGUGAAGACAGAACCAGAGGGAAUAAGGAUCUUUUUUUUAAAGACAGCAUGGAAAGUUUACAACAGAGGAUUGAGCAUCA

target: T1, UNK ZnF1-6 (called full-length); assay: nsRBNS (natural sequence RNA bind-n-seq); RBNS binding buffer (assumed for nsRBNS): 25 mM Tris pH 7.5, 150 mM KCl, 3 mM MgCl2, 0.01% Triton X-100, 500 ug/ml BSA, 20 U/ml SUPERase-In, 4 C; UNK is unkempt and MSI1 is Musashi-1; names of the RNAs are library labels; protein concentration not given here; high values mean tight binding

| Binder | binding signal [enrichment R] |
| --- | --- |
| B1 | 0.686 |
| B2 | 0.758 |
| B3 | 0.721 |
| B4 | 0.507 |
| B5 | 3.48 |
| B6 | 2.66 |
| B7 | 2.84 |
| B8 | 1.48 |
| B9 | 0.454 |
| B10 | 0.589 |
| B11 | 0.691 |
| B12 | 1.2 |
| B13 | 0.816 |
| B14 | 0.731 |
| B15 | 0.985 |
| B16 | 1.93 |
| B17 | 0.452 |
| B18 | 2.01 |
| B19 | 19.7 |
| B20 | 22.2 |
| B21 | 1.84 |
| B22 | 0.264 |
